Results: patent US20230272055A1, “ANTI-MUTANT CALRETICULIN (CALR) ANTIBODIES AND USES THEREOF” (Incyte Corporation, priority 2021, published 2023)
Positions count from the first letter of the chain named. “Also recorded” adds a separate entry of the source.

T1: MPL dimerization in HAP1 cells transfected with MPL-LgBiT, MPL-smBiT, human JAK2 and mutant CALR Type 1 (Homo sapiens, UniProt P27797)
T1 construct: the full-length WT or mutant CALR Type 1 protein (full-length cds cloned into the pD2529 vector, ATUM Bio); expressed in transfected cells; host or cells: HAP1 cells knocked out for human JAK2 (Horizon Discovery, Ltd.), transient transfection
T1 sequence (P27797 with tags, fused parts or gaps): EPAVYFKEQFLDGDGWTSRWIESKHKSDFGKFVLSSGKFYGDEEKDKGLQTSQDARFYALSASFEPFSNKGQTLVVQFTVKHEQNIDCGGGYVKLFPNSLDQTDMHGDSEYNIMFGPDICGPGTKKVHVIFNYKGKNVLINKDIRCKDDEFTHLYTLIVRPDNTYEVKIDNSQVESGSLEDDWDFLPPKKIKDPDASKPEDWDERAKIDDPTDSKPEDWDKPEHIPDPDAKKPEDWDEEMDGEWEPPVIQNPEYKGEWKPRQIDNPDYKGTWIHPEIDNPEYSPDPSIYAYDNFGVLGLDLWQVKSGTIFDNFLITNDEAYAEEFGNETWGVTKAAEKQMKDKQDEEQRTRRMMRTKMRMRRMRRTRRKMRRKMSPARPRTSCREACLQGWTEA

B1: 4 (antibody)
heavy: EVQLVQSGAEVKKPGASVKVSCKVSGYTLTELSMQWVRQAPGKGLEWMGGFDPDDGETMYAEKFQGRLTVTEDTSTDTVYMELRSLTSEDTALYFCATSPGYDFFDYWGQGTLVTVSSASTKGPSVFPLAPSSKSTSGGTAALGCLVKDYFPEPVTVSWNSGALTSGVHTFPAVLQSSGLYSLSSVVTVPSSSLGTQTYICNVNHKPSNTKVDKRV[omitted - human IgG1 Fc]
light: SYVLTQPPSVSVAPGQTARITCGGNNIGSKSVHWYQQKPGQAPVLVVYDDSDRPSGIPERFSGSNSGNTATLTINRVEAGDEADYYCQVWDSSNDLLIFGGGTKLTVLGQPKAAPSVTLFPPSSEELQANKATLVCLISDFYPGAVTVAWKADSSPVKAGVETTTPSKQSNNKYAASSYLSLTPEQWKSHRSYSCQVTHEGSTVEKTVAPTECS
B2: 55 (antibody)
heavy: EVQLVQSGAEVKKPGASVKVSCKVSGYTLTELSMQWVRQAPGKGLEWMGGFDPDDGETMYAEKFQGRLTVTEDTSTDTVYMELRSLTSEDTALYFCATSPGYDFFDYWGQGTLVTVSSASTKGPSVFPLAPSSKSTSGGTAALGCLVKDYFPEPVTVSWNSGALTSGVHTFPAVLQSSGLYSLSSVVTVPSSSLGTQTYICNVNHKPSNTKVDKRV[omitted - human IgG1 Fc with changes]
light: QSALTQPASVSGSPGQSITISCTGTSSDVGGYNYVSWYQQHPGKAPKLMIYEVSNRPSGVSNRFSGSNSGNTATLTINRVEAGDEADYYCQVWDSSNDLLIFGGGTKLTVLGQPKAAPSVTLFPPSSEELQANKATLVCLISDFYPGAVTVAWKADSSPVKAGVETTTPSKQSNNKYAASSYLSLTPEQWKSHRSYSCQVTHEGSTVEKTVAPTECS
B3: 68 (antibody)
heavy: EVQLVQSGAEVKKPGASVKVSCKVSGYTLTELSMQWVRQAPGKGLEWMGGFDPDEGETMYAEKFQGRLTVTEDTSTDTVYMELRSLTSEDTALYFCATSPGYDFFDYWGQGTLVTVSSASTKGPSVFPLAPSSKSTSGGTAALGCLVKDYFPEPVTVSWNSGALTSGVHTFPAVLQSSGLYSLSSVVTVPSSSLGTQTYICNVNHKPSNTKVDKRV[omitted - human IgG1 Fc with changes]
light: SYVLTQPPSVSVAPGKTARITCTGTSSDVGGYNYVSWYQQKPGQAPVLVVYEVSNRPSGIPERFSGSNSGNTATLTISRVEAGDEADYYCQVWDSSNDLLIFGGGTKLTVLGQPKAAPSVTLFPPSSEELQANKATLVCLISDFYPGAVTVAWKADSSPVKAGVETTTPSKQSNNKYAASSYLSLTPEQWKSHRSYSCQVTHEGSTVEKTVAPTECS
B4: 134 (antibody)
heavy: EVQLVQSGAEVKKPGASVKVSCKVSGYTLTELSMQWVRQAPGKGLEWMGGFDPDDGETMYAEKFQGRLTVTEDTSTDTVYMELRSLTSEDTALYFCATSPGYDFFDYWGQGTLVTVSSASTKGPSVFPLAPSSKSTSGGTAALGCLVKDYFPEPVTVSWNSGALTSGVHTFPAVLQSSGLYSLSSVVTVPSSSLGTQTYICNVNHKPSNTKVDKRV[omitted - human IgG1 Fc with changes]
light: B1 light with Q16K, N25D, N75S
B5: 184 (antibody)
heavy: EVQLVQSGAEVKKPGASVKVSCKVSGYTLTELSMQWVRQAPGKGLEWMGGFDPDDAETMYAEKFQGRLTVTEDTSTDTVYMELRSLTSEDTALYFCATSPGYDFFDYWGQGTLVTVSSASTKGPSVFPLAPSSKSTSGGTAALGCLVKDYFPEPVTVSWNSGALTSGVHTFPAVLQSSGLYSLSSVVTVPSSSLGTQTYICNVNHKPSNTKVDKRV[omitted - human IgG1 Fc with changes]
light: B1 light with N25S, N26D, S29D, K30E, S31I, N75S, N94S, L96H
B6: 188 (antibody)
heavy: EVQLVQSGAEVKKPGASVKVSCKVSGYTLTELSMQWVRQAPGKGLEWMGGFDPDEGETMYAEKFQGRLTVTEDTSTDTVYMELSSLRSEDTAVYFCATSPGYDFFDYWGQGTLVTVSSASTKGPSVFPLAPSSKSTSGGTAALGCLVKDYFPEPVTVSWNSGALTSGVHTFPAVLQSSGLYSLSSVVTVPSSSLGTQTYICNVNHKPSNTKVDKRV[omitted - human IgG1 Fc with changes]
light: B1 light with N25S, N26D, S29D, K30E, S31I, N75S, N94S, L96H
B7: AB2: anti-mutCALR antibody including VH and VL regions of antibody B3 from WO2020175689 fused to human constant regions (antibody)
heavy: QVQLQQSGAELVKPGSSVKISCKASGYTFTRNFIHWIKQQPGNGLEWIGWIFPGDGDTEYNQKFNGKATLTADKSSSTAYMQLSSLTSEDSAVYFCARGNYNYEYFDYWGQGVMVTVSSASTKGPSVFPLAPSSKSTSGGTAALGCLVKDYFPEPVTVSWNSGALTSGVHTFPAVLQSSGLYSLSSVVTVPSSSLGTQTYICNVNHKPSNTKVDKRV[omitted - human IgG1 Fc]
light: DIQMTQSPASLSASLGETVSIECLASEDIYSYLAWYQQKPGKSPQLLIFAANRLQDGVPSRFSGSGSGTQFSLKISGMQPEDEGDYFCLQGSKFPYTFGPGTKLELNRTVAAPSVFIFPPSDEQLKSGTASVVCLLNNFYPREAKVQWKVDNALQSGNSQESVTEQDSKDSTYSLSSTLTLSKADYEKHKVYACEVTHQGLSSPVTKSFNRGEC
B8: AB3: anti-mutCALR antibody including the BJ095 VH region and the BJ097 VL region from WO2019178362 fused to human constant regions (antibody)
heavy: QVQLVQSGAEVKKPGASVKVSCKASGYSFTGYYIHWVRQAPGQGLEWIGYISAYNGASSYNQKFKGRATFTVDTSISTAYMELSRLRSDDTAVYYCASSMDYWGQGTLVTVSSASTKGPSVFPLAPSSKSTSGGTAALGCLVKDYFPEPVTVSWNSGALTSGVHTFPAVLQSSGLYSLSSVVTVPSSSLGTQTYICNVNHKPSNTKVDKRV[omitted - human IgG1 Fc]
light: DVVMTQSPLSLPVTLGQPASISCKSSQSLLDSDGKTYLNWLQQRPGQSPKRLIYLVSKLDSGVPDRFSGSGSGTDFTLKISRVEAEDVGVYHCWQGTHFPYTFGQGTKLIEKRTVAAPSVFIFPPSDEQLKSGTASVVCLLNNFYPREAKVQWKVDNALQSGNSQESVTEQDSKDSTYSLSSTLTLSKADYEKHKVYACEVTHQGLSSPVTKSFNRGEC

biological target: T2, recombinant MBP-mutCALR Type 1 fusion protein (Homo sapiens, UniProt P27797, DEL40-40); assay: Biacore SPR binding kinetics, Experiment 1; details: Biacore 8K, 25° C., 1:1 binding model
T2 construct: His6 (N); purchased Cepter (cepterbiopartners.com), custom made

| Molecule | ka [M⁻¹ s⁻¹] | kd [s⁻¹] |
| --- | --- | --- |
| B1 | 1.63e+06 | 0.00704 |

test system: Ba/F3 cells transfected with MPL and mutCALR Type 1; assay: Inhibition of cell proliferation, CellTiter-Glo 72 hours, mutCALR Type 1; type: cell-based; details: Ba/F3 engineered cells, high-throughput primary screening
Summary of the method: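 Anti-mutCALR antibodies were added to engineered Ba/F3 cells (MPL with Type 1 or Type 2 mutCALR; 5,000/well, RPMI 1640, 2% FBS). Proliferation was scored as CellTiter-Glo luminescent viability following a 72 h incubation.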

| Molecule | IC50 inhibition of cell proliferation [ng/mL] |
| --- | --- |
| B2 | 1.1 |
| B3 | 0.9 |
| B4 | 3.6 |
| B5 | 1.9 |
| B6 | 4.6 |
| B1 | 2.2 |

biological target: T2, recombinant MBP-mutCALR Type 1 fusion protein; assay: Biacore SPR binding kinetics, Experiment 2 (parental and variant antibodies); details: Biacore 8K, 25° C., 1:1 binding model

| Molecule | ka [M⁻¹ s⁻¹] | kd [s⁻¹] |
| --- | --- | --- |
| B2 | 5.32e+06 | 0.000911 |
| B3 | 1.44e+06 | 0.00166 |
| B4 | 1.27e+06 | 0.00142 |
| B5 | 428000 | 0.000673 |
| B6 | 732000 | 0.00121 |

test system: BaF3 cells expressing MPL/mutCALR Type 1; assay: Example 16 inhibition of cell proliferation, CellTiter-Glo 72 hours; type: cell-based; details: 72 hours; FIG. 21B, Table 16
Description: The ability of the five antibodies shown here to inhibit cell proliferation was tested. Inhibition of cell proliferation was assessed using engineered BaF3 cells expressing MPL/mutCALR Type 1. Cells were plated at 5,000 cells per well in RPMI 1640+2% FBS, antibodies were added and incubated for 72 hours, followed by assessment of cell viability using the CellTiter-Glo Luminescent Cell Viability Assay (Promega, Madison, Wis.) and Top Count (Perkin Elmer, Boston, Mass.) or Pherastar (BMG Labtech, Ortenberg, Germany) for luminescence quantification. […] The data shown in FIGS. 21A and 21B were compiled from different experiments.

| Molecule | inhibition of cell proliferation |
| --- | --- |
| B1 | substantially inhibit cell proliferation; also recorded: inhibits cell proliferation |
| B7 | no functional activity |
| B8 | no functional activity |

same assay, conditions: BaF3 cells expressing MPL/mutCALR Type 1, 72 hours, CellTiter-Glo

| Molecule | IC50 for anti-mutCALR antibody mediated inhibition of cell proliferation [ng/mL] |
| --- | --- |
| B1 | 100 |
| B7 | >60000 |
| B8 | >60000 |

biological target: T1, MPL dimerization in HAP1 cells transfected with MPL-LgBiT, MPL-smBiT, human JAK2 and mutant CALR Type 1; assay: Inhibition of MPL dimerization (MPL-LgBiT/MPL-smBiT luminescence); type: cell-based; details: percent inhibition compared to isotype control; FIGS. 4A-4G
Description: Inhibition of MPL dimerization was tested as a potential mechanism of action of the anti-mutCALR antibodies. HAP1 cells knocked out for human JAK2 (Horizon Discovery, Ltd.) were transiently transfected with vectors encoding the MPL-LgBiT and MPL-smBiT fusion proteins (Promega Corp.). Also included in the transfection were vectors encoding the full-length human JAK2 and the full-length WT or mutant CALR Type 1 protein (full-length cds cloned into the pD2529 vector, ATUM Bio). The cells were transfected in 96 well plates using Trans-IT 2020 reagent (Mirus Bio LLC) with equivalent amounts of each plasmid. Cells were then incubated at 37° C., 5% CO2. 6 hours post-transfection, antibodies were diluted into growth medium (IMDM, 10% FBS) and added to the cells at the indicated concentrations. The plates were incubated overnight and the growth medium was replaced with 100 μl OPTI-MEM I, no phenol red, containing the same concentrations of antibodies. After 1 hour at 37° C., 5% CO2, 25 μl NanoGlo Live Cell Reagent (Promega) was added to each well. Plates were returned to the incubator for 30 minutes before luminescence was read on a PHERAstar FSX (BMG Labtech). Data was analyzed using GraphPad PRISM Software (version 7.04) and expressed as percent inhibition compared to isotype control.
The amino acid sequences for the MPL-LgBiT and MPL-smBiT fusion proteins used in this Example are: […]

| Molecule | inhibition of MPL dimerization |
| --- | --- |
| B2 | inhibit MPL dimerization |
| B3 | inhibit MPL dimerization |
| B4 | inhibit MPL dimerization |
| B5 | inhibit MPL dimerization |
| B6 | inhibit MPL dimerization |
